Experimental findings from PubChem BioAssay AID463173 (ICCB-Longwood Screening Facility, Harvard Medical School, 2010) are described below.

Out of some 52,000 compounds screened, about 4,300 (8.3%) were called active. Cut-off read from the data, not from the text of the source: active = survival mostly below about 52% (no sharp cut-off); inactive = mostly above about 56%. This is one part of the list.

This assay deals with DeltatarO mutant. Briefly: growth inhibition of S. aureus wild type versus tarO mutant, primary screen, teichoic acid synthesis inhibitors, RN4220, OD600 (AID 463173). The conditions noted are these: OD600, 18 h, hits give low values, screened at 18.75 µg/mL (by protocol).
As to `O=C(Nc1ccc(OC(F)(F)F)cc1)C1CCCN(S(=O)(=O)c2cccc3nonc23)C1` (stereo not drawn), the survival is inactive: 96%. On to `O=C(O)CCCN1C(=O)C(O)=C(C(=O)/C=C/c2ccccc2)C1c1ccccc1` (stereo not drawn), for which the survival is inactive: 96%. For `Cc1cccc(OCC(=O)Nc2nonc2-c2ccc(Br)cc2)c1C`, the survival was inactive: 68%. To `O=C(COc1ccc(Cl)cc1)Nc1sc2c(c1C(=O)Nc1cccc(Cl)c1)CCCC2` belongs inactive: 170%. To `CCOc1ccc(CC(=O)Nc2ccc3c(c2)N(C)C(=O)c2ccccc2S3)cc1OCC` belongs inactive: 95%; to `Cc1cccc(C)c1-n1ncc(C(=O)NCc2ccc3c(c2)OCO3)c1C1CCN(C(=O)OC(C)(C)C)CC1`, inactive: 126%.

On to `CCc1ccc(OCC(=O)N(Cc2ccc(C)cc2)Cc2ccco2)cc1`, for which the survival was inactive: 91%. Turning to `COc1ccccc1-c1ccc(=O)n(CC(=O)NC(C)(C)C)n1`, the survival was inactive: 87%. To `Cc1ccc(NC(=O)CSc2nc(-c3ccc(F)cc3)nc3c2Cc2c(CO)cnc(C)c2O3)cc1C` belongs inactive: 57%; to `COC(=O)c1ccccc1NC(=O)CN(c1ccccc1OC)S(C)(=O)=O`, inactive: 78%; to `O=C(CSc1nccn1-c1cccc(Cl)c1)Nc1cccc(C(F)(F)F)c1`, inactive: 80%. To `CN(Cc1ccccc1)C(=O)CCS(=O)(=O)c1cc(Br)cc2c1N(C(=O)C1CC1)CC2` belongs inactive: 81%.

`COc1ccc2c(c1)CCc1sc(NC(=O)c3ccc(Cl)cc3)nc1-2`: the survival was active: 31%.

For `CCC1=Nc2cc(C(=O)NC(C)c3ccccc3)ccc2Sc2ccc(Cl)cc21` (stereo not drawn), the survival is inactive: 73%.

Turning to `COCCCNC(=O)CN1C(=O)COc2ccc(S(=O)(=O)N3CCCCCC3)cc21`, the survival is inactive: 84%.

For the compound `Cc1ccc(NC(=O)CCc2c(C)nc3c(-c4ccccc4)c(C)nn3c2C)c(C)c1`, the survival is inactive: 66%. As for `COc1ccc(-n2c(=O)c3ccccc3n(CC(=O)NCCc3ccccc3)c2=O)c(OC)c1`, the survival is inactive: 74%. Take `Cc1cccc(-n2cc(-c3ccccc3)c3c(NC(C)C)ncnc32)c1`: the survival is inactive: 107%. To `CC1CCN(S(=O)(=O)c2cn(CC(=O)Nc3ccc(F)c(Cl)c3)c(=O)c3ccccc23)CC1` belongs inactive: 73%; to `CCCc1nnc(N2C(=O)c3oc4ccc(F)cc4c(=O)c3C2c2ccc(C(=O)OC)cc2)s1` (stereo not drawn), inactive: 97%. To `COc1ccccc1OCC(=O)Nc1nnc2n1CCS2` belongs inactive: 87%; to `CCCNC(=O)c1cc(-c2ccccc2)on1`, inactive: 95%. As for `O=C(COc1ccccc1F)Nc1ccccc1OCc1cc(=O)n2ccccc2n1`, the figure is inactive: 88%; as for `CC(C)c1ccc(NC(=O)c2ccc(F)c(S(=O)(=O)N3CCCC3)c2)cc1`, inactive: 74%.

For the compound `CC1CCN(C(=O)Cn2cc(SCc3ccccc3)c3ccccc32)CC1`, the survival is inactive: 46%. As for `N#C/C(=C/c1ccc(-c2cc(C(=O)O)ccc2Cl)o1)C(=O)NCCc1c[nH]c2ccccc12`, the figure is active: 12%; as for `CCC(C)NC(=O)Cn1c(=O)n(CC2CCC(C(=O)NC)CC2)c(=O)c2sccc21` (stereo not drawn), inactive: 89%; as for `CCc1ccccc1NC(=O)N1CCN(c2nnc(C)c3c(C)n(-c4ccccc4)nc23)CC1`, inactive: 70%. As for `CCOC(=O)c1c(NC(=O)CS(=O)(=O)c2ccc(C)cc2)sc2c1CCC(C)C2` (stereo not drawn), the figure is inactive: 102%; as for `CC1CCN(C(=O)Cn2cc(SCc3cccc(F)c3)c3ccccc32)CC1`, inactive: 59%.

As for `O=C(C1CCC1)N1CCc2cc(S(=O)(=O)N3CCN(c4ccccc4)CC3)ccc21`, the survival was inactive: 72%.

For `COc1cc2ccccc2cc1C(=O)N1CCN(c2nc3c(C)cc(C)cc3s2)CC1`, the survival is inactive: 130%. With `O=C(NC1CCCCC1)N(Cc1nc2ccccc2c(=O)[nH]1)C1CCCC1`, the survival is inactive: 85%.

As for `O=S(=O)(c1ccc(S(=O)(=O)N(Cc2ccccc2)Cc2ccco2)cc1)N1CCCCCC1`, the survival is inactive: 69%. As for `CCOc1ccc(-n2cc(C(=O)Nc3ccccc3OCC)c3cc(OC)c(OC)cc3c2=O)cc1`, the figure is inactive: 61%; as for `O=C(OCc1ccccc1Cl)c1ccc(-c2nnn(Cc3ccc(F)cc3)n2)cc1`, inactive: 130%; as for `Cc1nn2c(=O)cc(COc3ccc(/C=C(\C#N)C(=O)Nc4ccccc4)cc3Cl)nc2s1`, active: 49%. As for `O=c1oc2ccccc2cc1-c1nc2c(s1)CCCC2`, the figure is inactive: 100%; as for `Brc1ccc2c(c1)NC(c1cccnc1)=NC(c1ccccc1)=N2`, inactive: 96%.

For the compound `CCOc1ccccc1C(=O)N1CC(=O)Nc2ccc(C)cc2C1c1ccccc1` (stereo not drawn), the survival was inactive: 144%. Take `COc1ccc(NC(=O)Nc2cc(-c3cn4cccnc4n3)ccc2OC)cc1`: the survival is inactive: 95%. As for `CCOc1ccccc1NC(=O)N1CCc2c(sc3c2CCCC3)C1c1ccccc1` (stereo not drawn), the figure is inactive: 94%. To `CCCOc1ccc(C2c3c(-c4ccccc4O)n[nH]c3C(=O)N2Cc2cccnc2)cc1` (stereo not drawn) belongs active: 3%; to `NC(Cc1c[nH]c2ccccc12)C(=O)NCc1ccccc1` (stereo not drawn), inactive: 92%. To `CC(C)OCCCn1c(=O)c2ccccc2n2c(-c3cc(Cl)ccc3O)nnc12` belongs inactive: 89%. `COc1cc(C(=O)Nc2ccc(-c3nc4ccccc4o3)c(O)c2)cc(OC)c1OC`: the survival was inactive: 128%. As for `Cc1cn2c(=O)cc(COC(=O)c3ccc(NC(=O)COc4ccc(C)c(C)c4)cc3)nc2s1`, the figure is inactive: 91%; as for `COc1cc2c(cc1OC)C(COc1ccc(F)cc1)N(C(=O)Cc1ccccc1)CC2` (stereo not drawn), inactive: 87%. To `CCOc1ccc(-c2cc(C(=O)NCCCOC)c3c(-c4ccc(CC)cc4)[nH]nc3n2)cc1` belongs inactive: 79%.

As for `COC(=O)c1ccccc1NC(=O)c1cc(CN2CCOCC2)on1`, the survival is inactive: 97%. To `CCOC(=O)c1csc2c1CCC/C2=N/OC(C)=O` belongs inactive: 86%; to `CCc1cccc(C)c1Nc1c(-c2cccs2)nc2nc(C)cc(C)n12`, inactive: 75%; to `COc1ccc(-c2cc3nc(C)c(CCC(=O)N4CCN(c5ccccc5F)CC4)c(C)n3n2)c(OC)c1`, inactive: 68%. For the compound `Cc1ccc(NC(=O)Cn2c(=O)oc3cc(S(=O)(=O)N4CCCCC4)ccc32)c(C)c1`, the survival is inactive: 81%. As for `CCC(=O)Nc1ccc(CC)cc1-c1nc2ccccc2n(CC(=O)Nc2ccccc2C)c1=O`, the figure is inactive: 88%.

Take `N#Cc1c2c(c(-n3ccnc3)n3c1nc1ccccc13)CCC2`: the survival was inactive: 104%.

As for `COc1ccc(-c2onc(C)c2C)cc1S(=O)(=O)Nc1cc(Cl)ccc1C`, the survival is inactive: 86%. To `CC(=C1C(=O)c2ccccc2C1=O)N1CCN(CCO)CC1` belongs inactive: 96%; to `O=C(CSc1nc2ccccc2nc1Cc1ccccc1F)Nc1cccc(C(F)(F)F)c1`, active: 35%; to `CCN(CC)c1ccc(NC(=O)CCS(=O)(=O)c2ccc3c(c2)oc(=O)n3C)c(C)c1`, inactive: 73%. To `Cc1ccc(CNc2ncnc3onc(C)c23)cc1` belongs inactive: 116%; to `O=C(NCc1cccs1)C1CCN(c2ccc(S(=O)(=O)N3CCOCC3)cc2Cl)CC1`, inactive: 69%; to `CCn1c(=O)cc(OCC(=O)N2CCN(c3cccc(Cl)c3)CC2)c2ccccc21`, inactive: 116%. As for `CCCOc1ccc(NC(=O)CC2C(=O)N(c3ccc(F)cc3)C(=O)N2CC(C)C)cc1` (stereo not drawn), the figure is inactive: 64%; as for `CCCCOc1ccc(CNC(=O)C2CCCN(c3nnc(-n4c(C)ccc4C)s3)C2)cc1` (stereo not drawn), inactive: 87%. `NC(=O)c1cc(N)ccc1N1CCOCC1`: the survival is inactive: 67%. As to `COc1cc(C(=O)N2CCC(c3nc4ccccc4s3)CC2)cc(OC)c1OC`, the survival was inactive: 74%. To `Cc1ccc2c(c1)sc1nc(=O)n(-c3ccc(Cl)c(Cl)c3)c(=O)n12` belongs active: -6%; to `COc1ccc(C2=C(C)C(=NCc3ccc(OC(C)C)cc3)NS2(=O)=O)cc1`, inactive: 91%; to `Cc1ccc(S(=O)(=O)N2CCN(Cc3ccc4c(c3)OCO4)CC2)cc1`, inactive: 70%. Regarding `CCc1ccc(-c2cc(C)no2)cc1S(=O)(=O)Nc1cc(OC)c(OC)c(OC)c1`, the survival is inactive: 94%.

Consider `CCn1c(=O)c2sccc2n2c(CCC(=O)Nc3ccc(OC)cc3OC)nnc12`, for which the survival is inactive: 82%. `CCc1ccccc1NC(=O)CN1C(=O)c2cccnc2Sc2ccccc21`: the survival is inactive: 86%. Consider `Cc1ccc(Cn2c(CNC(=O)Cc3cccc([N+](=O)[O-])c3)nc3cccnc32)cc1`, for which the survival was inactive: 70%. To `NC(=O)NC(=O)c1nc2nonc2[nH]c1=O` belongs inactive: 91%. Regarding `CC(NC(=O)CSc1nc(-c2cccc(Cl)c2)nc2cc(=O)[nH]n12)c1nc2ccccc2n1C` (stereo not drawn), the survival is inactive: 68%.

As to `COc1ccc(-c2nc3ccccc3s2)cc1NC(=O)c1cccc([N+](=O)[O-])c1C`, the survival was active: 38%. To `O=c1c2ccccc2n(Cc2c(F)cccc2Cl)c(=O)n1Cc1ccccc1` belongs inactive: 56%. As for `CCn1c(=N)c(C(=O)NCC2CCCO2)cc2c(=O)n3cc(C)ccc3nc21` (stereo not drawn), the survival is inactive: 66%. To `O=S(=O)(NCC(c1ccccc1)N1CCc2ccccc21)c1ccccc1` (stereo not drawn) belongs inactive: 89%; to `CCn1cc(C(=O)NCCc2ccc(Cl)cc2)c(=O)c2cc(S(=O)(=O)N3CCCCCC3)ccc21`, inactive: 65%; to `Cc1ccc2c(=O)c(C(=O)c3ccccc3)cn(CC(=O)Nc3ccccc3C)c2n1`, inactive: 66%. Turning to `COc1cc(NC(=O)Cn2cnc3sc(C)c(S(=O)(=O)N4CCC(C)CC4)c3c2=O)cc(OC)c1OC`, the survival was inactive: 111%. As for `CC(CN1CCOCC1)OC(=O)C1c2ccccc2Oc2ccccc21` (stereo not drawn), the figure is inactive: 81%; as for `Cc1nc(-c2ccc(S(=O)(=O)NCc3ccc(OC(C)C)cc3)cc2)co1`, inactive: 94%; as for `O=C(COc1ccccc1F)Nc1ccc2nc(SCC(=O)N3CCCC3)sc2c1`, inactive: 69%.

On to `COc1ccc(C(=O)NCCn2cc(SCC(=O)Nc3ccc(F)cc3)c3ccccc32)cc1`, for which the survival is inactive: 52%. `O=C(NC1CCN(C(=O)Nc2cccc(Cl)c2)CC1)C1CCCCC1`: the survival was inactive: 58%.
